# In PubChem BioAssay AID493208 (National Center for Advancing Translational Sciences (NCATS), 2011):
# Screen size: about 44,000 compounds; about 340 (0.77%) were called active. Another 5% or so got no clear call; they are omitted. Calls follow the shape of the dose curve; as a rule, active = well fitted inhibition curve with a large enough effect; inconclusive = small, poorly fitted or top-dose-only effect; inactive = flat fitted curve, though single readings scatter. The list shows a part of the results.
# Assay: Acumen qHTS Assay for Inhibitors of the mTORC1 Signaling Pathway in MEF (Tsc2-/-, p53-/-) Cells: Sytravon;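 also: plate controls were DMSO for no effect and rapamycin for full effect; nearly all actives have a fitted effect of over 50% in size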
# Details: phospho-rpS6 immunofluorescence/PI, 24 h; series mostly up to 38.3 µM; activity change, negative = inhibition: at the top concentration
# Procedure, shortened: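 Readout is phospho-S6 Alexa 488 signal normalized to PI per well, reported as % active cells with thresholds set from rapamycin (7.5 nM) and DMSO controls. Cells: Tsc2-/-, p53-/- MEFs, 24 hrs compound at 37 C; PI cell number serves as viability.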
row,Structure (SMILES),"activity change, negative = inhibition"
1,O=C(NCc1ccccc1)C1CCN(C(=O)c2cnn(-c3ccccc3)c2-n2cccc2)CC1,inactive: 2.24%
2,C=Cc1ccc(Cn2c(=O)n(-c3ccc(C)cc3)c(=O)c3c2c2cc(OC)ccc2n3C)cc1,inactive: 1.83%
3,CCOc1ccc2nc(N3CCCC(C(=O)NCc4ccccc4Cl)C3)sc2c1 (stereo not given),inactive: -25.8%
4,COc1ccc2cc(C(=O)NCc3ccc4c(c3)CCN4C(=O)c3ccc(C)cc3)[nH]c2c1,inactive: -1.11%
5,Cc1ccc(C)c(Cn2c(C)c(CNCc3ccc(F)cc3)c(C(=O)O)c2C)c1,inactive: 0.885%
6,COc1ccc(CCNC(=O)CCCCCn2c(=O)[nH]c3cc(OC)c(OC)cc3c2=O)cc1OC,inactive: -16.2%
7,CC1=C(C(=O)Nc2ccc(C)cc2C)C(c2cccn2C)n2ncnc2N1 (stereo not given),inactive: -0.512%
8,CC(=O)Nc1nnc(SCc2cc(=O)c3cccc(C)c3[nH]2)s1,inactive: 0.0901%
9,Cc1ccc(C)c(N2CCN(c3nc4ccccc4c4nc(-c5cccnc5)nn34)CC2)c1,inactive: -7.66%
10,CCOC(=O)c1cccc(NC(c2nnc(-c3ccccc3)o2)c2ccccc2F)c1 (stereo not given),inactive: -8.16%
11,CC(C)C(=O)Nc1cccc(NC2=NS(=O)(=O)c3ccccc32)c1,inactive: 0.065%
12,CCc1ccc(C2=CC(c3cccc(Br)c3)n3nnnc3N2)cc1 (stereo not given),inactive: 0.208%
13,Cc1ccc2c(c1)c(=O)c(C(=O)c1ccncc1)cn2CC(=O)Nc1ccccc1Cl,inactive: 0%
14,CCc1ccc(NC(=O)Cn2c(=O)oc3cc(S(=O)(=O)NCc4ccccc4)ccc32)cc1,inactive: -0.186%
15,Cc1ccc(CNC(=O)C2CCCN(c3nnc(-n4c(C)ccc4C)s3)C2)cc1 (stereo not given),inactive: -2.84%
16,COc1ccc(NC(=O)CSc2nc(O)c(C/C=C/c3ccccc3)c(=O)[nH]2)cc1,inactive: -0.834%
17,CCSc1nc(-c2ccc(Cl)cc2)nc2c1Cc1c(CO)cnc(C)c1O2,inactive: 3.53%
18,COc1ccccc1CNC(=O)CCC1N=C2c3ccccc3N=C(SCc3ccccc3Cl)N2C1=O (stereo not given),inactive: -0.699%
19,COc1ccc(-c2cc(C(F)(F)F)n3nc(C(=O)Nc4cccc(C(F)(F)F)c4)c(Br)c3n2)cc1,inactive: -11.7%
20,CCOC(=O)c1sc2ccccc2c1S(=O)(=O)NCc1ccc(F)cc1,inactive: -22.6%
21,CCOC(=O)c1ccc(NC(=O)CCn2cnnn2)cc1,inactive: -21.8%
22,CC1=C(c2ccc(Cl)cc2)S(=O)(=O)N=C1N1CCN(c2cccc(C(F)(F)F)c2)CC1,inactive: 0.797%
23,O=C(NCc1ccccc1Cl)c1ccc(CSCc2cccc(F)c2)o1,inactive: -2.73%
24,Cc1ccc(NC(c2nnc(-c3ccccc3)o2)c2ccccc2F)c([N+](=O)[O-])c1 (stereo not given),inactive: 0.753%

row,Structure (SMILES),"activity change, negative = inhibition"
1,Cc1ccc(-n2nnnc2CNC(=O)c2ccccc2F)cc1C,inactive: -0.904%
2,Cc1cccn2c(=O)cc(COc3ccc(NC(=O)c4cccc(F)c4)cc3)nc12,inactive: -0.624%
3,CCC1CCCCN1C(=O)Cn1c(=O)n(CCCCCC(=O)NCc2ccc(F)cc2)c(=O)c2sccc21 (stereo not given),inactive: 7.44%
4,O=C(O)CCn1cnc2onc(-c3ccccc3Cl)c2c1=O,inactive: -0.282%
5,O=C(NCc1ccc(Cl)cc1)c1ccc2c(c1)NC(=O)C(CS(=O)(=O)Cc1ccccc1Cl)N2 (stereo not given),inactive: 0%
6,CCc1cccc(NC(=O)Cn2cc(C(=O)c3ccncc3)c(=O)c3cc(C)c(C)cc32)c1,inactive: -1.29%
7,COc1cccc(N2C(=O)CSC23C(=O)N(CC(=O)Nc2cccc(Cl)c2)c2ccccc23)c1 (stereo not given),inactive: -6.14%
8,COc1cc(CN(C(=O)COc2ccccc2Cl)c2ccccn2)cc(OC)c1OC,inactive: -0.28%
9,CCn1c(C)c(C)c2cc(C(=O)N3CCN(c4cccc(C)c4C)CC3)ccc21,inactive: -12.5%
10,COc1cccc(-n2c(-c3ccco3)nc3c(cnn3-c3ccc(Cl)cc3)c2=O)c1,inactive: -1.78%
11,COc1ccc(CC(=O)Nc2cc(-c3nc4cccnc4s3)ccc2C)cc1,inactive: 2.99%
12,CN(C)S(=O)(=O)N(CC(=O)NCCSCc1cccc(Cl)c1)c1ccccc1,inactive: -7.09%
13,CCOC(=O)c1ccc(N2C(=O)c3n[nH]c(-c4cccs4)c3C2c2cccc(OC)c2)cc1 (stereo not given),inactive: -7.46%
14,CCOc1ccc(-n2c(=O)c3c4c(sc3n(CC(=O)NC(C)CC)c2=O)CCC4)cc1 (stereo not given),inactive: -0.218%
15,O=S(=O)(c1ccc(Cl)cc1)c1nnn2c1nc(NCc1cccs1)c1sccc12,inactive: -19.8%
16,CCC(=O)Nc1ccc2nc(SCc3ccccc3)sc2c1,inactive: -1.89%
17,COc1ccc(C)cc1NC(=O)CSc1nc(=O)[nH]c2c1CCCC2,inactive: -6.02%
18,CCC(CC)C(=O)N1CCc2cc(OC)c(OC)cc2C1COc1ccc(C(=O)OC)cc1 (stereo not given),inactive: 0.0905%
19,COc1ccc(-c2nnc(Nc3ccc(OC)c(C(N)=O)c3)c3ccccc23)cc1,inactive: 11.4%
20,CCS(=O)(=O)c1nc(S(=O)(=O)c2ccc(C)cc2)c(NC(C)c2ccccc2)s1 (stereo not given),inactive: -20.1%
21,CCOc1ccc(-n2cc(-c3ccccc3)c3c(N4CCC(C)CC4)ncnc32)cc1,inactive: 9.33%
22,CCOc1ccccc1NC(=O)C(=O)c1cc(C)n(-c2ccc(F)cc2)c1C,inactive: -1.92%
23,Cc1ccc(S(=O)(=O)c2nc(-c3ccc(F)cc3)oc2SCC(=O)c2ccccc2)cc1,inactive: 0.474%
24,CCc1ccc2oc(-c3cccc(NC(=O)C(C)(C)Oc4ccc(Br)cc4)c3)nc2c1,inactive: -5.22%

row,Structure (SMILES),"activity change, negative = inhibition"
1,Cc1ccc(Nc2c(-c3ccc(C)cc3)nc3ccc(C)cn23)cc1,inactive: 4.34%
2,Cc1cc(C)cc(Nc2ncnc3onc(-c4ccc(F)cc4)c23)c1,inactive: -4.79%
3,CCOc1ccc(CNC(=O)c2cc3c(s2)-c2ccccc2OC3)cc1,inactive: -2.03%
4,O=C(c1ccc2c(c1)CCCC2)N1CCN(c2nc3ccc(F)cc3s2)CC1,inactive: -0.43%
5,CCc1ccc(S(=O)(=O)NCc2nc3cccnc3n2Cc2ccccc2Cl)cc1,inactive: -10.5%
6,CCCOc1ccc(CNC(=O)Cn2cc3c(n2)-c2c(oc(C(=O)N4CCOCC4)c2C)CC3)cc1,inactive: -19.9%
7,COc1cc(NC(=O)NC(C)c2c(-n3cccc3)sc3c2CCN(C)C3)cc(OC)c1 (stereo not given),inactive: -1.23%
8,COc1cccc(-n2c(SCC(=O)N3CCCc4ccccc43)nc3c([nH]c4ccccc43)c2=O)c1,inactive: -0.135%
9,O=C(CCSCc1cccc(F)c1)NCc1ccccc1,inactive: 5.3%
10,COc1ccc(Cl)cc1NC(=O)Cn1c(=O)n(CCCC(=O)NCCc2ccc(OC)c(OC)c2)c(=O)c2ccccc21,inactive: -15.6%
11,CCN1CCN(c2c(S(=O)(=O)c3ccc(Cl)cc3)cnc3ccccc23)CC1,inactive: -1.06%
12,Cc1ccc(NC(=O)Cn2c(=O)n(CCCS(=O)(=O)C3CCCCC3)c(=O)c3ccccc32)cc1F,inactive: -0.266%
13,CC(NC(=O)c1ccc(Cn2c(=O)c3cccn3c3cccnc32)cc1)c1ccccc1 (stereo not given),inactive: 6.35%
14,COc1ccc(C(=O)c2oc3ccccc3c2NC(=O)COc2ccc(C)cc2)cc1,inactive: -0.352%
15,COc1ccc(S(=O)(=O)c2cc3cc(OC)ccc3oc2=O)cc1,inactive: 6.27%
16,CCc1ccccc1NC(=O)N1CCc2cc(OC)c(OC)cc2C1CC(=O)OC (stereo not given),inactive: 0%
17,Cc1ccc(C)c(Nc2nc3c(S(=O)(=O)c4ccc(Br)cc4)nnn3c3ccsc23)c1,inactive: -8.01%
18,CCC1CN(S(=O)(=O)c2ccc3c(c2)NC(=O)CC(=O)N3)c2cc(Cl)ccc2O1 (stereo not given),inactive: -1.41%
19,Cn1c(=O)c2c(-c3ccccc3Cl)n(Cc3ccc(Cl)cc3)cc2n(C)c1=O,inactive: -17%
20,Cc1cccc(N2CCN(C(=O)CCC(=O)NNc3nc4ccccc4c4nc(C)nn34)CC2C)c1 (stereo not given),inactive: -1.01%
21,COc1cc(C2c3c(-c4c(C)cc(C)cc4O)n[nH]c3C(=O)N2CCCOC(C)C)cc(OC)c1OC (stereo not given),inactive: 2.42%
22,CCc1ccccc1NC(=O)CN1C(=O)COc2ccc(S(=O)(=O)Nc3ccccc3)cc21,inactive: -8.09%
23,Cc1ccc(N2CC(c3nnc(Cc4ccccc4Cl)o3)CC2=O)cc1 (stereo not given),inactive: 6.32%
24,COc1ccccc1Cc1nc2ccccc2nc1SCC(=O)Nc1ccccc1C(F)(F)F,inactive: 1.53%

row,Structure (SMILES),"activity change, negative = inhibition"
1,COc1ccc(S(=O)(=O)n2nc(-c3ccco3)nc2NCc2ccc(OC)c(OC)c2)cc1,inactive: 1.49%
2,COc1ccc(N(C(=O)c2ccc(Cl)cc2)S(=O)(=O)c2ccc(C)cc2)cc1,inactive: 7.25%
3,COc1ccccc1N1CCN(c2cc(C)nc3c(-c4ccc(Cl)cc4)c(C)nn23)CC1,inactive: -5.28%
4,COCCCNc1nc2c(c(=O)n(C)c(=O)n2C)n1Cc1ccccc1,inactive: -1.98%
5,COCCOC(=O)C1=C(C)N=C2SCCC(=O)N2C1c1ccc(OCc2ccccc2)c(OC)c1 (stereo not given),inactive: 0.186%
6,CN(C)c1ccc(CNC(=O)CCn2c(=O)c3cccn3c3ccc(F)cc32)cc1,inactive: 5.13%
7,COc1cccc(-c2[nH]c3c(c2-c2c(-n4cccc4)n(C)c(=O)[nH]c2=O)c(=O)[nH]c(=O)n3C)c1,inactive: -2.19%
8,COCCNC(=O)CCSc1nc(-c2ccc3c(c2)OCO3)cc(C(F)(F)F)n1,inactive: 0.491%
9,CCc1nnc2c(NCc3cccc(OC)c3)nc3ccccc3n12,inactive: -0.423%
10,CCOc1ccccc1C(=O)Nc1nnc(COC)s1,inactive: -2.54%
11,Cc1ccc(C(=O)N2CCc3cc(CNC(=O)c4ccnn4C)ccc32)cc1,inactive: -13.5%
12,CCN(CC)S(=O)(=O)c1ccc2c(c1)c(=O)c(C(=O)NCc1ccccc1OC)cn2C,inactive: -1.85%
13,Cc1ccc(NS(=O)(=O)c2ccc3c(c2)NC(=O)CCS3)cc1F,inactive: -4.91%
14,Cc1cn(C)c(CC(=O)N2CCN(c3ccc(F)cc3)CC2)c1C(=O)O,inactive: -3.24%
15,O=C(NCc1ccc2c(c1)CCN2C(=O)c1ccccc1)c1ccc(Br)o1,inactive: -0.155%
16,CCN(C(=O)Cn1cc(C(=O)c2ccc(F)cc2)c(=O)c2ccc(C)nc21)c1cccc(C)c1,inactive: -4.83%
17,CC1CCCCN1c1nc(-c2ccc(C(C)(C)C)cc2)nc2ccccc12 (stereo not given),inactive: -11.1%
18,COc1cc(NC(=O)Cn2c(=O)nc(-c3ccccc3F)c3cc(Cl)ccc32)cc(OC)c1,inactive: 0%
19,CCOC(=O)c1cc(OC(=O)c2cccc(Cl)c2)n(-c2ccccc2)n1,inactive: -0.983%
20,Cc1ccc(C)c(N2CCN(C(=O)Cn3c(C)c4cnn(-c5ccccc5)c(=O)c4c3C)CC2)c1,inactive: -5.26%
21,COC(=O)c1ccccc1NC(=O)Cn1nc(C(F)(F)F)c2c1CCCC2,inactive: -3.1%
22,CCOc1ccc(C(=O)N2CCC(c3ccncc3)CC2)cc1,inactive: -11.4%
23,CC(C)c1nc2ccc(C(=O)NCCCN3CCN(c4ccc(F)cc4)CC3)cc2o1,inactive: 0.599%
